To fix the notation:
B1: OR4K15 (parent)
chain: GUUAACGGUCAUAGGCCAUGGAAACUAGGAGCACCAUUUCGCUGCCAGUGAAGAAAUGAACAAAGAAAAUCUGGGCCAGGCAGGCAUCAAAAGAAAUAGUCUUGCGCUCAACCAGAAAGUCUGUAAUCAUUUUAAGGGUA

These results are taken from the RNAGym collection of RNA variant scans (doi:10.7554/elife.90254).

Read counts are not given, so values of variants with three or more changes are uncertain.

Variants of B1 are the subject of the data set. Description: self-cleavage, relative activity (ratio to wild type); higher = more cleavage; in vitro, sequencing; the parent is a self-cleaving ribozyme.
As for GUUAGCGGUCGUAGGCCAUGGAAACCAGGAGCACCAUUUCGCUGCCAGUGAAGAAAUGAACAAAGAAAAUCUGGGCCAGGCAGGCAUCAAAAGAAAUAGUCUUGCGCUCAACCAGAAAGUCUGUAAUCAUUUUAAGGGUA [A5G A11G U26C], the self-cleavage is 1.43.
With GUUACCGGUCAUAGGCCAUGGAAACUAGGAGCACCAUUUCGCUGCCAGUAAAGGAAUGAACAAAGAAAAUCUGGGCCAGGCAGGCAUCAAGAGAGAUAGUCUUGCGCUCAACCGGAAAGUCUGUAAUCAUUUUAAGGGUA [A5C G50A A54G A91G A95G A114G], the self-cleavage is 1.
For the variant GUUAGCGGUCAUGGGCCAUGGAAACUAGGAGCACCAUUUCGCUGCCAGUGAGGAAACGAACAAAGAAAAUCUGGGCCAGGCAGGCAUCAAAAGAAAUAGUCUUGCGCUCAACCAGAAAGUCUGUAAUCAUUUUAAGGGUA [A5G A13G A52G U57C], the self-cleavage was 1.39.
Regarding GUUAGCGGUCUUAGGCCAUGGAAACUAGGAGCACCAUUUCGCUGCCAGUGAAGAAAUGAACAAAGAGAAUCUGGGCCAGGCAGGCAUCAAAAGAAAUAGUCUUGCGCUCAACCAGAAAGUCUGUAAUCAUUUUAAGGGUA [A5G A11U A67G], the self-cleavage is 0.83.
With GUUAGCGGUCGUAGGCCAUGGAAACUAGGAGCACCAUUUCGCUGCCAGCGAAGAAAUGAACAAAGAAAAUCUGGGCCAGGCAGGCAUCAAAAGAAAUAGUCUUGCGCUCAACCAGAAAGUCUGUAAUCAUUUUAAGGGUA [A5G A11G U49C], the self-cleavage worked out at 1.05.
As for GUUAGCGGUCGUAGGCCAUGGAAACUAGGAGCACCAUUUCGCUGCCAGUGAAGAAAUGGACAAAGAAAAUCUGGGCCAGGCUGGCGUCAAAAGAAAUAGUCUUGCGCUCAACCAGAAAGUCUGUAAUCAUUUUAAGGGUA [A5G A11G A59G A82U A86G], the self-cleavage was determined as 0.04.
As to GUUACCGGUCAUAGGCCAUGGAAACUAGGAGCACCAUUCCGCUGCCAGUGAAGAAAUGAACAGAGAAAAUCUGGGCCAGGCAGGCAUCAAAAGAAAUAGUCUUGCGCUCAACCAGAAAGUCUGUAAUCAUUUUAAGGGUA [A5C U39C A63G], the self-cleavage stood at 2.08.
On to GUUAGCGGUCCUAGGCCAUGGAAUCUAGGAGCACCAUUUCGCUGCCAGCGAGGAAAUGAACAACGAAAAUCUGGGCCAGGCAGGCAUCAAAAGAAAUAGUCUUGCGCUCAACCAGAAAGUCUGUAAUCAUUUUAAGGGUA [A5G A11C A24U U49C A52G A64C], for which the self-cleavage is 1.08.
As to GUUAGCGGUCAUGGGCCAUGGAAUCUAGGAGCACCAUUUCGCUGCCAGUGAAGAAAUGAACAAAGAAAAUCUGGCCCAGGCAGGCAUCAAUAGAAAUAGUCUUGCGCUCAACCAGAAAGUCUGUAAUCAUUUUAAGGGUA [A5G A13G A24U G75C A91U], the self-cleavage is 0.28.
Take GUUACCGGUCAUAGGCCAUGGAAACUAGGAGCACCACUACGCUGCCAGUGAAGAAAUGAACAAAGAAAAUCAGGGCCAGGCAGGCAUCAAAAGAAAUAGUCUUGCGCUCAACCAGAAAGUCUGUAGUCAUUUUAAGGGUA [A5C U37C U39A U72A A126G]: the self-cleavage was 0.22.
For GUUACCUGCCAUAGGCCAUGGAAACAAGGAGCACCAUUUCGCUGCCAGUGAAGAAACGAACAAAGAAAAUCUGGGCCAGGCAGGCAUCAAAAGAAAUAGUCUUGCGCUCAACCAGAAAGUCUGUAAUCAUUUUAAGGGUA [A5C G7U U9C U26A U57C], the self-cleavage amounted to 1.68.
As to GUUACCGGCCAUAGGCCAUGGAAACUAGGAGCACCAUUUCGCUGCCAGUGAGGAAAUGAACAAAGAAAAUCUGGGCCAGGCAGGCAUCAAAAGAAAUAGUCUUGCGCUCAACCAGAAAGUCUGUAAUCAUUUUAAGGGUA [A5C U9C A52G], the self-cleavage turned out to be 0.71.
With GUUAGCGGUCUUAGGCCAUGGAAACCAGGAGCACCAUUUCGCUGCCAGAGAAGAAGUGAACAAAGAAAAUCUGGGCCAGGCAGGCAUCAAAAGAAAUAGUCUUGCGCUCAACCAGAAAGUCUGUAAUCAUCUUAAGGGUA [A5G A11U U26C U49A A56G U131C], the self-cleavage worked out at 1.38.
GUUAGCGGUCGUAGGCCAUGGAAACUAGGAGCACCAUUUCGCAGCCAGUGAAGAAAUGAACAGAGAAAAUCUGGGCCAGGCAGGCAUCAAAAGAAAUAGUCUUGCGCUCAACCAGAAAGUCUGUAAUCAUUUUAAGGGUA [A5G A11G U43A A63G]: the self-cleavage was 0.84.
Under GUUACCGGUCAUAGGCCAUGGAAACUAGGAGCACCAUUUCGCUGCCAGUGAAGAAAUGAACAAAGAAAAUCUGGGCCAGGCAGGCAUCAAAAGAAAUAGACUUGCGCUCAACCAGAAGGUCUGUAAUCACUUUAAGGGUA [A5C U100A A118G U130C] stands 0.22; under GUUAGCGGUCGUAGGCCACGGAAACUAGGAGCACCAUUUCGCUGCCAGUGAAGUAAUGAACAAAGAAAAUCUGGGCCAGGCAGGCAUCAAAAGAAAUAGUCUUGCGCUCAACCAGAAGGUCUGUAAUCAUUUUAAGGGUA [A5G A11G U19C A54U A118G], 0.8.
With GUUACCGGUCAUAGUCCAUGGAAACUAGGAGCACCAUUUCGCUGCCAGUGAAGAAAUGAACAAAGAAAAUCUGGGCCAGGCAGGCAUCAAAAGAAAUAGUCUUGCGCUCAACCGGAAAGUCUGUAAUCAUUUUAAGGGUA [A5C G15U A114G], the self-cleavage was determined as 0.4.
With GUUAGCGGUCAUGGGCCAUGGAGACUAGGAGCACCAUUUCUCUGCCAGUGAAGAAGUGAACAAAGAAAAUCUGGGCCAGGCAGGCAUCAAAAGAAAUAGUCUUGCGCUCAACCAGAAAGUCUGUAAUCAUUUUAAGGGUA [A5G A13G A23G G41U A56G], the self-cleavage is 0.33.
Regarding GUUACCGGUCAUAGGCCAUGGAAACUAGGAGCACCAUUUCGCAGCCAGUGAAGAAAUGAACAAGGAAAAUCUGGGCCAGGCAGGCAUCAAAAGAAAUAGUCUUGCGCUCAACCAGAAAGUCUGUAAUCAUUUUAAGGGUA [A5C U43A A64G], the self-cleavage is 1.36.
As for GUUAGCGGUCGUAGGCCAAGGAAACUAGGAGCACCAUUUCGCUGCCAGUGAAGAAAUGAACAAAGAAAAUCUGGGCCAGGCAGGCAUCAAAAGAAAUAGUCUUGCGCUCAACCAGAAAGUCUGUAAUCAUUUUAAGGGUA [A5G A11G U19A], the self-cleavage was determined as 1.23.
As to GUUAGCGGUCAUGGGCCAUGGAAACUAGGAGCACCAUUUCGCUGCCAGUGAAGAAAUGAACAAAGAAAAUCUGGGCCAGGCAGGCAUCAAAAGAAAUAGUCUUGCGCUCAACCAGUAAGUCUGUAAUCAUUUUAAGGGUA [A5G A13G A116U], the self-cleavage is 0.25.
